{"source": "PubChem BioAssay AID1347073", "about": "(National Center for Advancing Translational Sciences (NCATS), 2019)", "note": "Hit rate of the full screen: of about 45,000 compounds, about 200 (0.44%) were called active. Another 7% or so got no clear call; they are omitted. Calls follow the shape of the dose curve; as a rule, active = well fitted activation curve with a large enough effect; inconclusive = small, poorly fitted or top-dose-only effect; inactive = no such curve, though single readings can be large or run the other way. This is one part of the list."}
{"test": "qHTS of TDP-43 Inhibitors: NCGC Sytravon Library Screen; also: 0% is about no effect; nearly all actives have a fitted effect of over 55% in size", "conditions": "yeast TDP-43 toxicity rescue, BacTiter-Glo growth, 24 h; series mostly up to 46.1 µM; growth rescue (activation): at the top concentration", "procedure,_shortened": "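TDP-43-expressing yeast, pregrown in raffinose, seeded at OD600 0.02 in galactose medium with compound for 24 hr at 30 deg C. Growth read by BacTiter-Glo luminescence, so rescue of toxicity appears as activation.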"}
{"molecule": "CCN1CCN(C(=O)c2ccc(CN(c3ccccc3)S(=O)(=O)c3ccccc3)cc2)CC1", "growth rescue (activation)": "inactive: 9.02%"}
{"molecule": "COc1ccc(-c2csc(NC(=O)C(CC(=O)O)N3CCOCC3)n2)cc1", "note": "(stereo not drawn)", "growth rescue (activation)": "inactive: 14.5%"}
{"molecule": "COc1ccc(CN2CCCC(CNC(=O)c3ccc(F)cc3)C2)cc1OC", "note": "(stereo not drawn)", "growth rescue (activation)": "inactive: 2.33%"}
{"molecule": "c1ccc2c(c1)COC(CNC1CCCCC1)OC2", "growth rescue (activation)": "inactive: -12.2%"}
{"molecule": "O=C(CSc1nnc2c(n1)[nH]c1ccccc12)Nc1ccc(N2CCOCC2)cc1", "growth rescue (activation)": "inactive: 6.56%"}
{"molecule": "CCc1ccccc1NC(=O)C1CCN(C(=O)c2cccs2)CC1", "growth rescue (activation)": "inactive: 5.98%"}
{"molecule": "Cc1cc(C(=O)Nc2ccccc2C(=O)N2CCCCC2)ccc1[N+](=O)[O-]", "growth rescue (activation)": "inactive: -3.37%"}
{"molecule": "Nc1c2c(nn1-c1ccccc1)CCC2", "growth rescue (activation)": "inactive: -35.7%"}
{"molecule": "Cc1cc(NC(=O)Cn2cnc3sc(C)c(C)c3c2=O)no1", "growth rescue (activation)": "inactive: -1.69%"}
{"molecule": "CC(=O)Nc1ccc(C(=O)OCC(=O)N2CCCC2=O)cc1", "growth rescue (activation)": "inactive: 4.98%"}
{"molecule": "O=C(N/N=C/c1ccc(OC(F)F)cc1)c1cc[n+]([O-])cc1", "growth rescue (activation)": "inactive: 1.92%"}
{"molecule": "Cc1ccc(C(=O)NC(=S)Nc2ccc(N3CCOCC3)cc2)cc1", "growth rescue (activation)": "inactive: 4.79%"}
{"molecule": "COc1ccc2nc(C)cc(SCC(=O)N/N=C/c3c(OC)ccc4ccccc34)c2c1", "growth rescue (activation)": "inactive: -2.01%"}
{"molecule": "Cc1cc(N2CCN(C)CC2)nc2ccc(NC(=S)N3CCCCC3)cc12", "growth rescue (activation)": "inactive: -16.3%"}
{"molecule": "CC(C)Oc1ccc(C(=O)Nc2cccc3cccnc23)cc1", "growth rescue (activation)": "inactive: -7.85%"}
{"molecule": "COC(=O)CCC(=O)Nc1cc(S(=O)(=O)Nc2ccc(Cl)cc2)ccc1N1CCOCC1", "growth rescue (activation)": "inactive: -5.54%"}
{"molecule": "Cc1c(CN2CCC(CO)(CCOc3ccccc3)CC2)[nH]c2ccc(Cl)cc12", "growth rescue (activation)": "inactive: -2.2%"}
{"molecule": "CC(C)CCNC(=O)C1CCC(=O)N1CCc1ccccc1", "note": "(stereo not drawn)", "growth rescue (activation)": "inactive: -9.15%"}
{"molecule": "CCOc1c(O)ccc(/C=C2\\SC(=S)NC2=O)c1[N+](=O)[O-]", "growth rescue (activation)": "inactive: -5.97%"}
{"molecule": "COc1ccc(NC(=O)c2cc([N+](=O)[O-])ccc2N2CCCCC2)cc1", "growth rescue (activation)": "inactive: -2.58%"}
{"molecule": "O=C(NCc1ccccc1OC(F)(F)F)C1CCC(=O)N(Cc2cccc(F)c2)C1", "note": "(stereo not drawn)", "growth rescue (activation)": "inactive: -5.95%"}
{"molecule": "COCC(=O)Nc1cc(C(=O)OC)cc(C(=O)OC)c1", "growth rescue (activation)": "inactive: -1.46%"}
{"molecule": "CN1CCN(CC(=O)Nc2nc(-c3ccccc3)cs2)CC1", "growth rescue (activation)": "inactive: 27.7%"}
{"molecule": "Cc1ccc(/C=C/C(=O)OCC(=O)NCCc2ccc(S(N)(=O)=O)cc2)o1", "growth rescue (activation)": "inactive: 1.25%"}
{"molecule": "Cc1nn(-c2ccccc2)c(C)c1N", "growth rescue (activation)": "inactive: 3.51%"}
{"molecule": "O=[N+]([O-])c1ccc(/C([O-])=C(/C(=S)NCc2ccco2)[n+]2ccccc2)cc1", "growth rescue (activation)": "inactive: -3.55%"}
{"molecule": "O=C(/C=C/c1ccc(F)cc1)c1ccc(N2CCOCC2)cc1", "growth rescue (activation)": "inactive: 12.3%"}
{"molecule": "COc1ccc(C2c3c(oc4ccccc4c3=O)C(=O)N2CCN2CCOCC2)cc1OC", "note": "(stereo not drawn)", "growth rescue (activation)": "inactive: 0.997%"}
{"molecule": "Cc1noc(C)c1COC(=O)c1ccccc1NC(=O)c1ccco1", "growth rescue (activation)": "inactive: 26.6%"}
{"molecule": "COc1ccc(/C(N)=N/O)cc1O", "growth rescue (activation)": "inactive: -3.41%"}
{"molecule": "COC(=O)[C@H](CC(C)C)NC(=O)NCCCc1ccccc1", "growth rescue (activation)": "inactive: 10.7%"}
{"molecule": "CN(CC(=O)N1CCCCC1)S(=O)(=O)c1ccc(Cl)cc1", "growth rescue (activation)": "inactive: -5.07%"}
{"molecule": "COc1cccc(C(=O)Oc2ccc(/C=N/NC(=O)c3ccncc3)cc2OC)c1", "growth rescue (activation)": "inactive: 3.45%"}
{"molecule": "COC(=O)c1c(NC(C)=O)sc(C(=O)N2CCOCC2)c1C", "growth rescue (activation)": "inactive: 9.44%"}
{"molecule": "Cc1ccc(OCC(=O)N/N=C\\c2ccc(C)o2)c([N+](=O)[O-])c1", "growth rescue (activation)": "inactive: 2.11%"}
{"molecule": "CC(=O)Nc1cccc(-c2cc(NC(C)=O)c3ncc(-c4cccc(C(C)=O)c4)n3c2)c1", "growth rescue (activation)": "inactive: 1.97%"}
{"molecule": "CCC(=O)NC(=S)Nc1ccc(NC(=O)c2ccc([N+](=O)[O-])cc2)cc1", "growth rescue (activation)": "inactive: 8.6%"}
{"molecule": "COc1cccc(C(=O)/C=C/Nc2ccc(S(=O)(=O)Nc3cc(OC)nc(OC)n3)cc2)c1", "growth rescue (activation)": "inactive: -9.8%"}
{"molecule": "Cc1nn(C)cc1S(=O)(=O)Nc1cccc(Cl)c1", "growth rescue (activation)": "inactive: 11.6%"}
{"molecule": "CN(C)c1ncnc2c1ncn2[C@H]1CN(Cc2ccncc2)C[C@@H](CO)O1", "growth rescue (activation)": "inactive: -6.46%"}
{"molecule": "O=C1NC(=Nc2ccc(O)cc2)S/C1=C/c1ccco1", "growth rescue (activation)": "inactive: 5.76%"}
{"molecule": "COc1ccc(C)cc1S(=O)(=O)Nc1cccc(SC)c1", "growth rescue (activation)": "inactive: 21.1%"}
{"molecule": "Cc1nc2c(OCc3ccc(C(F)(F)F)cc3)cccn2c1N(C)CC1CC1", "growth rescue (activation)": "inactive: 2.16%"}
{"molecule": "COc1ccccc1CN(C)CC(=O)Nc1ccc(Cl)cc1C(F)(F)F", "growth rescue (activation)": "inactive: -10.1%"}
{"molecule": "CCCOc1ccc2c(c1)C(=NN=C(N)N)c1cc(OCCC)ccc1-2", "growth rescue (activation)": "inactive: -7.07%"}
{"molecule": "Cc1ccc(NC(=O)c2ccc3c(c2)C(=O)N(CC2CCCO2)C3=O)cc1C", "note": "(stereo not drawn)", "growth rescue (activation)": "inactive: 21.6%"}
{"molecule": "O=C(O)CC1Sc2nnc(COc3ccc(Cl)cc3)n2N=C1c1ccccc1", "note": "(stereo not drawn)", "growth rescue (activation)": "inactive: 10.9%"}
{"molecule": "Cc1cnc(NC(=O)c2ccccn2)s1", "growth rescue (activation)": "inactive: -1.58%"}
{"molecule": "COc1cc(OC)c(OC)cc1/C=C/c1cc(C(F)(F)F)[nH]c(=O)n1", "growth rescue (activation)": "inactive: 17.1%"}
{"molecule": "CCNC(=O)C1(C)CCN(C(=O)c2c(F)cccc2F)C1", "note": "(stereo not drawn)", "growth rescue (activation)": "inactive: -1.56%"}
{"molecule": "COc1ccc(OCC(=O)Nc2ccc(S(=O)(=O)Nc3nc(C)cc(C)n3)cc2)cc1", "growth rescue (activation)": "inactive: -5.08%"}
{"molecule": "Cc1cc(C(=O)CN2C(=O)C(=O)N(Cc3ccccc3)C2=O)c(C)n1CC1COc2ccccc2O1", "note": "(stereo not drawn)", "growth rescue (activation)": "inactive: -6.27%"}
{"molecule": "COc1ccc(-c2cncc3nccn23)cc1OC", "growth rescue (activation)": "inactive: 13.7%"}
{"molecule": "O=C(c1cc(-c2cccc(Cl)c2)on1)N1CCN(c2ccc(F)cc2)CC1", "growth rescue (activation)": "inactive: -0.0039%"}
{"molecule": "Cc1ccc(-c2nnn(CC(=O)N(c3ccc(F)cc3)C(C(=O)NC3CCCC3)c3ccncc3)n2)o1", "note": "(stereo not drawn)", "growth rescue (activation)": "inactive: -13.3%"}
{"molecule": "CN(C)c1cccc(CNC(=O)c2ccc3sc([C@@H]4O[C@H](CO)[C@H](O)[C@H](O)[C@H]4O)nc3c2)c1", "growth rescue (activation)": "inactive: -0.0311%"}
{"molecule": "CC(C)OC(=O)c1cc(NC(=O)C2C3C=CC(O3)C2C(=O)O)cc(C(=O)OC(C)C)c1", "note": "(stereo not drawn)", "growth rescue (activation)": "inactive: -12.4%"}
{"molecule": "Cc1ccc(CNC(=O)CSc2nnc3c(n2)[nH]c2ccccc23)cc1", "growth rescue (activation)": "inactive: 3.74%"}
{"molecule": "CC(=O)c1sc(N/N=C\\c2ccccc2O)nc1C", "growth rescue (activation)": "inactive: 6.21%"}
{"molecule": "COc1ccc(-c2nsc3c(SCc4ccccc4)ncnc23)cc1", "growth rescue (activation)": "inactive: 15.4%"}
{"molecule": "CC(NC(=O)CSc1nc2ccccc2c(=O)[nH]1)c1ccccc1", "note": "(stereo not drawn)", "growth rescue (activation)": "inactive: 3.36%"}
{"molecule": "COc1cccc(OC)c1C(=O)Nc1ccc(C(=O)NCc2ccccc2)cc1", "growth rescue (activation)": "inactive: 5.68%"}
{"molecule": "CCN(CC)S(=O)(=O)c1ccc(C)c(NC(=O)c2cc(C)oc2C)c1", "growth rescue (activation)": "inactive: 8.9%"}
{"molecule": "CC1CCCC(C)N1C(=O)COC(=O)c1ccc(Br)o1", "note": "(stereo not drawn)", "growth rescue (activation)": "inactive: 7.67%"}
{"molecule": "COc1ccc(/C=C(/NC(=O)c2ccc(C)cc2)C(=O)N2CCCC2)cc1OC", "growth rescue (activation)": "inactive: 9.13%"}
{"molecule": "CCOC(=O)C1CCCN(C(=O)COC(=O)c2cccs2)C1", "note": "(stereo not drawn)", "growth rescue (activation)": "inactive: 8.55%"}
{"molecule": "O=C(Cn1cnc([N+](=O)[O-])c1)NCCc1ccccc1", "growth rescue (activation)": "inactive: -7.3%"}
{"molecule": "O=C(O)CCCC(=O)NNC(=O)c1cccc(Br)c1", "growth rescue (activation)": "inactive: 7.46%"}
